These are yes or no findings as the source states them, for the method shown. Some results given as binding are weak or reduced against the parent protein; the word gives no strength. For part of these data: Sequences can lack the tags named with a protein.

By UniProt entry, the sequences of proteins in these tests, tags left out. Where a name states a change or a piece, a line headed by the entry shows the natural chain unless it says otherwise.
UniProt P81947: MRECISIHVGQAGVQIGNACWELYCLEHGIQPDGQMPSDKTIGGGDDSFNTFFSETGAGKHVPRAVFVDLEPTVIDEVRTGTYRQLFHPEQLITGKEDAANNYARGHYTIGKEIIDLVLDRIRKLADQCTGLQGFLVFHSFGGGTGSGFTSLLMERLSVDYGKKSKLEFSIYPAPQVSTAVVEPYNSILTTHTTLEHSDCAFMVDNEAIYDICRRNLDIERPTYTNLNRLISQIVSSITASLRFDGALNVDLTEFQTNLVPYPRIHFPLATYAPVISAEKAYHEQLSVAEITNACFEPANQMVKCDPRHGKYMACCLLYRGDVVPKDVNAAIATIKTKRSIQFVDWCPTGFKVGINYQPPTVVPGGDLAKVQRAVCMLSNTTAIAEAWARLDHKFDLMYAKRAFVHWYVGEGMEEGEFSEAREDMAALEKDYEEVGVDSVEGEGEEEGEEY
UniProt Q6B856: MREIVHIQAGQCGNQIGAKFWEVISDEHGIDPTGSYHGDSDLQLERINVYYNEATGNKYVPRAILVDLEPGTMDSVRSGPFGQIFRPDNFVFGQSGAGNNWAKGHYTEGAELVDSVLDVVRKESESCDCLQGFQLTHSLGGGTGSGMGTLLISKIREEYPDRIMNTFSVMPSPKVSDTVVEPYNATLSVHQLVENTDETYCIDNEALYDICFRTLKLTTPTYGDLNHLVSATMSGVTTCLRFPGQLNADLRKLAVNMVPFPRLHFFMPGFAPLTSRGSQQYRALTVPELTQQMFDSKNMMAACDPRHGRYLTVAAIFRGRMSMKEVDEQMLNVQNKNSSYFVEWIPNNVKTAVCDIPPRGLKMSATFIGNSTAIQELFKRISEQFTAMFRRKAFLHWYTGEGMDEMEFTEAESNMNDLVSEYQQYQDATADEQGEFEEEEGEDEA

Assay [1] has as its target T1, taxol-stabilized microtubules (α-/β-tubulin) (bovine) (UniProt P81947+Q6B856). In words: co-sedimentation; taxol-stabilized microtubules with purified isolated constructs (Fig. 1d, Supplementary Fig. 2A); concentrations not told for these constructs; both purified.
Assay [2] deals with T1, taxol-stabilized microtubules (α-/β-tubulin) (bovine). Kind of assay: co-sedimentation; microtubule-binding reaction: 3 μM microtubules (taxol-stabilized or subtilisin-treated) and 3 μM protein; 25 mM Hepes pH 7.5, 150 mM NaCl, 1 mM MgCl2, 1 mM EGTA, 2 mM DTE; 350,000 g, 25 °C; both purified.
Assay [3] has the same target. In words: co-sedimentation; Kd determination: 0-10 μM taxol-stabilized microtubules (tubulin dimer), 1 μM BSA, 1 μM protein of interest; 25 mM Hepes pH 7.5, 150 mM NaCl, 1 mM MgCl2, 1 mM EGTA, 2 mM DTE; 10 min room temperature; 350,000 g, 25 °C; gel densitometry, quadratic fit; apparent Kd; both purified.

B1: Astrin^966–1,175 (domain or fragment, UniProt Q96R06 966-1175)
chain: MEESLAEMSIMTTELQSLCSLLQESKEEAIRTLQRKICELQARLQAQEEQHQEVQKAKEADIEKLNQALCLRYKNEKELQEVIQQQNEKILEQIDKSGELISLREEVTHLTRSLRRAETETKVLQEALAGQLDSNCQPMATNWIQEKVWLSQEVDKLRVMFLEMKNEKEKLMIKFQSHRNILEENLRRSDKELEKLDDIVQHIYKTLLSI
For B1, the binding result in assay [1] is on record as “no binding”.

B2: GST-SKAP^175–225 (domain or fragment, UniProt Q9Y448 175-225)
chain: LKDKNQLLEAVNKQLHQKLTETQGELKDLTQKVELLEKFRDNCLAILESKG
For B2, in assay [2], the binding result is listed as “no binding (tested: 3 μM microtubules, 3 μM protein)”.

VTKITKLRRENGQMKATDTATRRNVRKGYKPLSKQKSEEE (domain or fragment, UniProt Q9Y448 135-174) [GST-SKAP^135–174]: the binding result in assay [2] is “binds weakly”.

B3: SKAP^226–316 (domain or fragment, UniProt Q9Y448 226-316)
chain: LDPALGSETLASRQESTTDHMDSMLLLETLQEELKLFNETAKKQMEELQALKVKLEMKEERVRFLEQQTLCNNQVNDLTTALKEMEQLLEM
B3: in assay [1], the binding result is listed as “no binding”.

B4: SKAP^135–225 6A mutant (K140A, K149A, K161A, K164A, K168A, K170A) (domain or fragment, UniProt Q9Y448 135-225)
chain: VTKITALRRENGQMAATDTATRRNVRAGYAPLSAQASEEELKDKNQLLEAVNKQLHQKLTETQGELKDLTQKVELLEKFRDNCLAILESKG
As to B4, the binding result in assay [3] was “no binding (tested: 0–10 μM microtubules, 1 μM protein)”.

B5: Astrin^1–239 (domain or fragment, UniProt Q96R06 1-239)
chain: MWRVKKLSLSLSPSPQTGKPSMRTPLRELTLQPGALTNSGKRSPACSSLTPSLCKLGLQEGSNNSSPVDFVNNKRTDLSSEHFSHSSKWLETCQHESDEQPLDPIPQISSTPKTSEEAVDPLGNYMVKTIVLVPSPLGQQQDMIFEARLDTMAETNSISLNGPLRTDDLVREEVAPCMGDRFSEVAAVSEKPIFQESPSHLLEESPPNPCSEQLHCSKESLSSRTEAVREDLVPSESNA
In the case of B5, the binding result in assay [1] was “no binding”.

The values above are taken from PMC4843017.
